Test results from the BET-seq Pho4 binding data (Le et al. 2018).
This is one part of the list. The energies were worked out here from pooled read counts, against the library average; single values are noisy.

Target: T1, Pho4 (S. cerevisiae) (UniProt P07270)
T1 sequence: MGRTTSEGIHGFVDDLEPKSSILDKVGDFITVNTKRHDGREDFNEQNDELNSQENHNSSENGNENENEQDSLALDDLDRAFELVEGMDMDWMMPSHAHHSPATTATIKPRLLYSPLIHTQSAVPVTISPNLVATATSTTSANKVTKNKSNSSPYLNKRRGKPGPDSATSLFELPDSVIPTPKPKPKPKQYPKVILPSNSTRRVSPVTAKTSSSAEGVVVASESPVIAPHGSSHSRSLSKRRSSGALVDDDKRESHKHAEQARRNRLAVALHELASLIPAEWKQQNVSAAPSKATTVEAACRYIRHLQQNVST
Test: relative binding free energy (BET-seq); higher = weaker binding
Details: reference: library average

Relative binding free energy, 0.24 kcal/mol:
AGGATCACGTGAGTGA
GTTCGCACGTGAGGCG

Relative binding free energy, 0.04 kcal/mol:
GTAGTCACGTGGCGGT
CGGTGCACGTGCCGTT
CGGGTCACGTGTTTAA
GTAGTCACGTGTTTCA

Relative binding free energy, 0.3 kcal/mol:
TTATTCACGTGTCTGT
TGATTCACGTGATGTT
GATTGCACGTGAGGGA
GGAATCACGTGGATTG

Relative binding free energy, -0.21 kcal/mol:
CAGGGCACGTGGGGGG
AAGGGCACGTGGTATG
ATTAGCACGTGGGCGA

Relative binding free energy, -0.11 kcal/mol:
TGCAACACGTGGGGGT
GGGCGCACGTGTCTGT
TTAGGCACGTGGTAGT
TGTGACACGTGCGGGG

Relative binding free energy, -0.25 kcal/mol:
CAGGGCACGTGGGTCG

Relative binding free energy, -0.15 kcal/mol:
ATAAACACGTGGTTTA
GGGAGCACGTGCCGTG
TGAGGCACGTGGGTGG

Relative binding free energy, -0.08 kcal/mol:
GGCTCCACGTGTGTGG
GGTTCCACGTGGTGCG
TGTATCACGTGCGTCG
TCAAGCACGTGGTTTT

Relative binding free energy, 0.33 kcal/mol:
TTGATCACGTGATTGA
GGCTTCACGTGTTAAG
TGTTTCACGTGATTAA
TTGTACACGTGAAGAG
GATTACACGTGATGAG

Relative binding free energy, 0.16 kcal/mol:
GACGTCACGTGGTATG
TTTGTCACGTGGACTT
AGGGTCACGTGTTGAG
TTGGGCACGTGGAAAA
GTTTACACGTGAGCTG
AAGGACACGTGGAAGT

Relative binding free energy, 0.08 kcal/mol:
AGTGTCACGTGCCAGT
TAGGTCACGTGGGTAC
TGCGTCACGTGTAGGC
ATCGTCACGTGTGTTT

Relative binding free energy, 0.35 kcal/mol:
CTATTCACGTGTCGGT
TAAAACACGTGAGTTT

Relative binding free energy, -0.04 kcal/mol:
AGGTACACGTGGCATT
TTCGGCACGTGATATT
GTTGGCACGTGCGTGC

Relative binding free energy, 0.38 kcal/mol:
GGGTACACGTGAGGAT
GAGTTCACGTGGATTT

Relative binding free energy, -0.31 kcal/mol:
CTGTGCACGTGGGATA

Relative binding free energy, 0.01 kcal/mol:
GGAAGCACGTGTCGAG
TTAGACACGTGCTTAT
GATGACACGTGGATGG
GGTAGCACGTGTAGAG
ATTTACACGTGGTGAC
TGTAACACGTGTATAA
TAAGGCACGTGTGACT
TTTTGCACGTGCTGTG
AGGATCACGTGTGGCG

Relative binding free energy, 0.18 kcal/mol:
TTTGTCACGTGATTCA
AGGGCCACGTGAGAGG
CGGGCCACGTGATGTT
GGAGTCACGTGGAATG
GCATGCACGTGTTAGT
TGGCTCACGTGTTTGT

Relative binding free energy, 0.42 kcal/mol:
TTGATCACGTGATGTT

Relative binding free energy, -0.09 kcal/mol:
TGGGTCACGTGGGCCG
AGGTGCACGTGGTGGG
AGGTGCACGTGGCGAG
TGTGGCACGTGGTGTA

Relative binding free energy, 0.34 kcal/mol:
TGATTCACGTGGCCGT
TCATTCACGTGATTGA
GGTAACACGTGGAAAT
GGGGTCACGTGTCGGA

Relative binding free energy, 0.13 kcal/mol:
GGTGACACGTGGAGTT
CGATTCACGTGGTGTA
CACTTCACGTGGTGTG

Relative binding free energy, 0 kcal/mol:
TTTTGCACGTGGAACA

Relative binding free energy, 0.36 kcal/mol:
GGTCACACGTGATCGT
GTTCTCACGTGTAGTA

Relative binding free energy, 0.4 kcal/mol:
TAGTTCACGTGACTTG

Relative binding free energy, -0.06 kcal/mol:
GCTAGCACGTGGGCGG
AGGGGCACGTGTGGAC

Relative binding free energy, -0.02 kcal/mol:
TGTTCCACGTGGTGTA
TTGAGCACGTGTTACA

Relative binding free energy, 0.43 kcal/mol:
GTTTTCACGTGGTTGA

Relative binding free energy, 0.15 kcal/mol:
GTGTGCACGTGTGGTA

Relative binding free energy, 0.2 kcal/mol:
GTTGTCACGTGAGCTA

Relative binding free energy, -0.05 kcal/mol:
AAAGTCACGTGGTCTG
TGTGACACGTGTGTCG
GAAGGCACGTGGTGTT
CGTTGCACGTGGCGGA
TCGTGCACGTGTTGGT

Relative binding free energy, -0.33 kcal/mol:
TATGCCACGTGGGGGG

Relative binding free energy, 0.12 kcal/mol:
TGGTACACGTGGATTG
GTGAACACGTGGTTCT
TAACACACGTGGAGGT
TAAGACACGTGTAATG
GGCTACACGTGGCGGG
AATATCACGTGTATGT
TGTTCCACGTGTAGGT
GGAGTCACGTGTGTCT
AGAATCACGTGTTCGG

Relative binding free energy, -0.22 kcal/mol:
GCCTGCACGTGGGCGG

Relative binding free energy, -0.07 kcal/mol:
TTACCCACGTGGTTTG
TTATACACGTGTGTCA
TGTCGCACGTGGTGTC

Relative binding free energy, 0.37 kcal/mol:
TGTTTCACGTGTGCCT
GTCTTCACGTGGAATT
GTCATCACGTGAGGCG

Relative binding free energy, 0.21 kcal/mol:
AAGCGCACGTGAGTTT
TATTTCACGTGTAGAG

Relative binding free energy, 0.09 kcal/mol:
GCGGTCACGTGTAGTG
CGGGACACGTGTGGTC
AACGACACGTGTTGTT
TTATCCACGTGTGATG

Relative binding free energy, 0.07 kcal/mol:
GGGTACACGTGCTGGC
TGTTCCACGTGTTTGG
TTGAACACGTGGTAGC
TGGATCACGTGGGAGG
TTCGTCACGTGGTAGG
CTTGGCACGTGATGGA
TGTTACACGTGTCTGT

Relative binding free energy, -0.24 kcal/mol:
AGGCGCACGTGGTCGG

Relative binding free energy, 0.28 kcal/mol:
AGAATCACGTGAGTGG
GAAATCACGTGTGTTG
GGCTTCACGTGGGCGT
GCATTCACGTGTGTGT
TTATTCACGTGATCGG

Relative binding free energy, -0.12 kcal/mol:
TACAGCACGTGGTGAG
AAAGGCACGTGTATTG

Relative binding free energy, -0.01 kcal/mol:
GTAGACACGTGTGGTA
TTGTCCACGTGTAGAG
CTTTGCACGTGTGCGG
TTGTGCACGTGGTTTT

Relative binding free energy, 0.14 kcal/mol:
GTTAACACGTGTAATA
AATGCCACGTGTGGGA
ATTTACACGTGTGCAG
AAAGACACGTGTGGCT
AGAGGCACGTGTAGTT
TTGTTCACGTGGCTTC
TAGTTCACGTGGGTTA
GTTATCACGTGTACGT

Relative binding free energy, 0.32 kcal/mol:
TCTTACACGTGATGTT
TGAGTCACGTGAGCAT

Relative binding free energy, 0.25 kcal/mol:
TGGATCACGTGGAAGT
TCATTCACGTGATGTA
CTGTCCACGTGAGGTG
CTTTACACGTGATGGG

Relative binding free energy, -0.14 kcal/mol:
CTAATCACGTGGGGTG
ATAGGCACGTGTTTAA

Relative binding free energy, 0.26 kcal/mol:
TATTTCACGTGTTGTT
TAGTTCACGTGTTCGG

Relative binding free energy, -0.17 kcal/mol:
GGTGGCACGTGGTCAT
TGAAGCACGTGTTTGA

Relative binding free energy, 0.47 kcal/mol:
GGGTTCACGTGAAGTC

Relative binding free energy, 0.05 kcal/mol:
AGTGACACGTGGATGT
GGTGGCACGTGGGAAT
AGCGTCACGTGCTAGT
AGGTGCACGTGTTACG
TGTTGCACGTGCGGGT
GAGGTCACGTGGTTCA
AGAGTCACGTGGGAGG
ATTGTCACGTGTACAG
ATTGTCACGTGTTATG
AATAGCACGTGGTAAA

Relative binding free energy, 0.29 kcal/mol:
GGATTCACGTGTGGCT
GCGATCACGTGTGGAG

Relative binding free energy, -0.18 kcal/mol:
CGTGGCACGTGGGAGT

Relative binding free energy, 0.19 kcal/mol:
TTAGTCACGTGTACTG
AGTATCACGTGGCGAG
GGGATCACGTGGATAT
CTTTACACGTGTGGAG
GTGTTCACGTGGGGAG
AGCTTCACGTGTTATG
GTTGTCACGTGTGATA
GAGGTCACGTGTTGTC
AGTTTCACGTGTAAAG
CTTATCACGTGTTGAG

Relative binding free energy, 0.06 kcal/mol:
TAAGTCACGTGGCTTA
TGTCACACGTGGGAGT
ATAAGCACGTGAGGCG
TTGTGCACGTGATGTG

Relative binding free energy, -0.03 kcal/mol:
ATATACACGTGGCGTG

Relative binding free energy, -0.1 kcal/mol:
GTACGCACGTGCGTTG
GAGCGCACGTGGTGTT

Relative binding free energy, 0.1 kcal/mol:
AGGGGCACGTGAGGTC
GGGTACACGTGTGCGG
GGTGACACGTGTAGAA
AATATCACGTGTGTTC

Relative binding free energy, 0.31 kcal/mol:
TCTTTCACGTGTGTGT
TTAGACACGTGAATTT
TAGTTCACGTGTGCTA
AACTTCACGTGTGGTG
GTTTTCACGTGTCGTA

Relative binding free energy, 0.11 kcal/mol:
ACTGTCACGTGTGGTC
GGTTACACGTGTTTCG
GCGGTCACGTGGATAG
GATAACACGTGTCGGG
GGTGTCACGTGTTTAA

Relative binding free energy, 0.17 kcal/mol:
ATTTTCACGTGGATCT
TGTTTCACGTGGGGCT
TCTTTCACGTGACGGT
GTTTACACGTGTGGAC

Relative binding free energy, -0.2 kcal/mol:
AGAAGCACGTGGGTCT

Relative binding free energy, -0.16 kcal/mol:
AATGACACGTGGGTAA
GTGAGCACGTGGCTTA

Relative binding free energy, -0.13 kcal/mol:
GTCTGCACGTGGGTAT

Relative binding free energy, 0.03 kcal/mol:
TGCTGCACGTGTTAGG
ATGTCCACGTGGTGTC
TTAGTCACGTGCTTAG
TTTTGCACGTGTTGTA
GGAGACACGTGGTAAT
GGCTCCACGTGGAGGT

Relative binding free energy, 0.23 kcal/mol:
CGCTTCACGTGGGGTC
GGTTACACGTGTGCGG
CGGGTCACGTGATTGA

Relative binding free energy, 0.02 kcal/mol:
CTTAGCACGTGATGTA
TTGGTCACGTGGGGGG
AAGGACACGTGTGGTG
TGTAGCACGTGTCGTC
TATAACACGTGTAGAG
ATTGACACGTGATTGA
TGAGTCACGTGCGCTT

Relative binding free energy, -0.19 kcal/mol:
GTGCCCACGTGGGTGA
TTACGCACGTGCTTGG

Relative binding free energy, 0.22 kcal/mol:
AATTTCACGTGATCGG
TTGTCCACGTGAATGG
GCTGGCACGTGAGGGT
TGGTACACGTGACGGG

Relative binding free energy, 0.27 kcal/mol:
TCGGTCACGTGAAGGT
GAATTCACGTGTGAGT
